Values joined by “and” are separate entries in the source; they are usually repeats but may differ in a detail not shown here. Equal entries are not always repeated. Out of some 16,000 compounds screened, about 40 (0.2%) were called active. Inconclusive results (about 1%) are left out. Calls follow the shape of the dose curve; as a rule, active = well fitted activation curve with a large enough effect; inconclusive = small, poorly fitted or top-dose-only effect, or another doubt; inactive = no such curve, though single readings can be large or run the other way. The list shows a part of the results. Starred links: 1 amine or outer side, 2 acyl side, 3 side chain; linkers in the order of their positions; H or OH if unused. Positions of bridges follow the written chain, without caps; N, C: chain ends. Non-standard residues stand in square brackets, D forms with d. Residues, ends and D or L forms follow the SMILES beside them. Chains are numbered I, II in the order given. Actinocin(9to1) = Cc1c2oc3c(C)ccc(C(=O)[*:1])c3nc-2c(C(=O)[*:2])c(N)c1=O; NMeV = CN[CH](C(=O)O)C(C)C; Sar = CNCC(=O)O
What follows are molecules tested against Rap guanine nucleotide exchange factor 4 (Homo sapiens) (UniProt Q8WZA2) (assay: Validation qHTS for agonist of cAMP-regulated guanine nucleotide exchange factor 4 (EPAC2)). Settings: EPAC2 Rap1B BODIPY-GDP exchange, fluorescence; activation: active compounds read high.
UniProt Q8WZA2, sequence (Q8WZA2 whole entry, looked up): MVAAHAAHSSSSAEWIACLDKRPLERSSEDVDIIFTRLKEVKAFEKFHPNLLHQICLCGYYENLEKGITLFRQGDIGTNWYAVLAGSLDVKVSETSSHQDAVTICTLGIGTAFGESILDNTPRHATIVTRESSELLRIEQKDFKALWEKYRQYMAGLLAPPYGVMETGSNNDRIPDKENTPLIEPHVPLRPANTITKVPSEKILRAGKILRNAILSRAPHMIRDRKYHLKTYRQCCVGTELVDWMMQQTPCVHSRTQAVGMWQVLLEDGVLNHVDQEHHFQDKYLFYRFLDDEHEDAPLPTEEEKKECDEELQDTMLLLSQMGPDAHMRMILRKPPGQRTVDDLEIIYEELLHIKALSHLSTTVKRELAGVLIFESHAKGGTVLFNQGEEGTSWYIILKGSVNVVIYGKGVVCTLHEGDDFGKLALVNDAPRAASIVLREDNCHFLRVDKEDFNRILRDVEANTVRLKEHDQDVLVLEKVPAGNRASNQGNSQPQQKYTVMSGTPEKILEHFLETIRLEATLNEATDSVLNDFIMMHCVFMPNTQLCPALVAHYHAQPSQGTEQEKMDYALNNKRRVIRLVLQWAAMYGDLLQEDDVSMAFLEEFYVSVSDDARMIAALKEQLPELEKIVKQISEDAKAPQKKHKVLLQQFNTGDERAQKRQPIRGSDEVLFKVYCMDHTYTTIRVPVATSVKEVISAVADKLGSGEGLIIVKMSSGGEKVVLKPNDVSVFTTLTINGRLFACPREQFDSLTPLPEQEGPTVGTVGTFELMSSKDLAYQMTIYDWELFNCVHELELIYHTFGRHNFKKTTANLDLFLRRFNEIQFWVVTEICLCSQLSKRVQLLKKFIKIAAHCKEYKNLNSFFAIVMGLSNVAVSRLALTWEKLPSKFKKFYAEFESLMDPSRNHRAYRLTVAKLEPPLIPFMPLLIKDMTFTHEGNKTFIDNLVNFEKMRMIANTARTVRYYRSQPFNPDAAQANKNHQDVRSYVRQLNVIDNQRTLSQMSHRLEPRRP
Procedure, shortened: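 Signal normalized against 6.5 mM cAMP as agonist control. Mix of EPAC2 (100 nM), RAP1B-BODIPY-GDP (250 nM) and GDP (50 uM) was read kinetically at 480/540 nm, every 5 min over 30 min, after 5 min room-temperature incubation with compound.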
% is scaled to controls: 0 for no effect and ±100 for the full control effect.
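Also: exchange makes BODIPY-GDP fluorescence drop when released from Rap1B; series mostly up to about 150 µM.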

activation, inactive:
CC(=O)Nc1ccc(-c2nc3ccc(Cl)cc3[nH]2)cc1 -4.64%
CCCCC[C@H](O)/C=C/[C@@H]1[C@@H](C/C=C\CCCC(=O)O)[C@@H](O)C[C@H]1O 2.31% and -3.33%
CN[C@H](CC(C)C)C(=O)N[C@H]1C(=O)N[C@@H](CC(N)=O)C(=O)N[C@H]2C(=O)N[C@H]3C(=O)N[C@H](C(=O)N[C@@H](C(=O)O)c4cc(O)cc(O)c4-c4cc3ccc4O)[C@H](O)c3ccc(c(Cl)c3)Oc3cc2cc(c3O[C@@H]2O[C@H](CO)[C@@H](O)[C@H](O)[C@H]2O[C@H]2C[C@](C)(N)C(O)[C@H](C)O2)Oc2ccc(cc2Cl)[C@H]1O (stereo partly drawn) 2.42% and -6.97%
CCSC(=N)N 1.23% and -12.4% and 1.22%
CCC(N)(C(=O)O)c1ccc(C(=O)O)cc1 (stereo not drawn) 0.302%
CN(C)Cc1ccccc1-c1nccc(N(C)C)n1 -7.19%
CC(=O)c1ccc(S(=O)(=O)NC(=O)NC2CCCCC2)cc1 -4.79% and 12.6%
CN(Cc1ccco1)c1ncnc2ccc(-c3cccc(C#N)c3)cc12 5.25%
CN(CCO)CC(O)Cn1cnc2c1c(=O)n(C)c(=O)n2C (stereo not drawn) (tested in a mixture with another compound) 9.71%
COCCn1c(=O)c(-c2cccs2)nc2cnc(OC)nc21 -3.53%
Cc1cnc(CNc2cc(-c3ccc(N(C)C)cc3)ncn2)cn1 -19.7%
c1ccc(-c2cn(CC3CCCCC3)nn2)cc1 -14.8%
Oc1ccc(-c2cnccn2)cc1CN1CCN(C2CCCCC2)CC1 -11.2%
Cc1cc2c(cc1Cl)N(C(=O)Nc1ccc(Oc3cccnc3C)nc1)CC2 -35.1%
O=C(c1cccnc1)C1CCCN(Cc2ccc3c(c2)CN(C(=O)c2ccc4[nH]ccc4c2)CCO3)C1 (stereo not drawn) -19.8%
O=c1c(O)c(-c2ccc(O)c(O)c2)oc2c(OC[C@@H]3O[C@@H](O)[C@@H](O)[C@H](O)[C@H]3O)c(O)cc(O)c12 -4.99%
COc1cc(-c2nc(C)cnc2C)cc2c1OCCN(C(=O)Cn1nc(-c3ccccc3)c3ccccc3c1=O)C2 -10.4%
CCNc1ncc2nc(-c3ccccc3)c(=O)n(CCOC)c2n1 8.48%
COCC(=O)N1CCC2(CCN(Cc3ccc(C#N)cc3)CC2)CC1 -2.38%
Cc1ccc(S(=O)(=O)NC(=O)NC2CCCC2)cc1 -3.75%
O=C(N[C@@H](Cc1ccccc1)C(=O)CCl)OCc1ccccc1 -40.9%
COc1ccc2c(c1)[C@]1(C)CCC(=O)C[C@H]1CC2 -16%
Cc1cc2c(c(-c3nc4ccccc4s3)c1)OC(CNC(=O)CCc1cccnc1)C2 (stereo not drawn) 5.87%
CCNc1ncc2nc(CCc3ccccc3)c(=O)n(C[C@H]3CCCO3)c2n1 -5.55%
COc1ccccc1CCn1c(=O)c(-c2ccc(F)cc2)nc2cncnc21 -11.1%
CCOc1cc(-c2nccc3cc(OC)c(OC)cc23)cc(OCC)c1OCC -53.3%
Cc1ccc2c(Br)cc(Br)c(O)c2n1 -1.17%
CC(CC=O)CCCC(C)(C)O (stereo not drawn) -20.3%
COc1ncc2nc(C)c(=O)n(CCC#N)c2n1 -9.33%
CCC1CN(CCNC(=O)c2ccc3c(c2)OCO3)Cc2cc(OC)ccc2O1 (stereo not drawn) -1.73%
Nc1cnccn1 -16.9%
O=C1CCN(Cc2ccccc2)S(=O)(=O)c2ccc(F)cc21 -25%
CC[N+]1(C)C2CCC1CC(OC(=O)[C@H]1CCC(C(=O)OC3CC4CCC(C3)[N+]4(C)CC)(c3ccccc3)c3ccccc31)C2 (stereo partly drawn) 9.44%
CN(C)c1ccc(/C=C/N2C=CCc3c2ccc2ccccc32)cc1 -11.8%
O=c1c(-c2cc(F)cc(F)c2)nc2cnc(N3CCNCC3)nc2n1CCc1ccccc1 1.94%
C#CCCCCCCCCCCCC(=O)CC(O)COC(C)=O (stereo not drawn) -7.08%
COc1ccc(C(=O)N2CCC3(CC2)CN(c2cccc(-c4ccccc4)c2)C3)cc1 3.64%
C[C@H]1[C@H](C)CC[C@]2(C(=O)O)CC[C@]3(C)C(=CCC4[C@@]5(C)C[C@@H](O)[C@H](O)[C@@](C)(CO)[C@@H]5CC[C@]43C)[C@H]12 (stereo partly drawn) -55.7%
O=C(Oc1ccccc1)N1CCC2(CCCN(c3ccc(-c4ccccc4)cc3)C2)CC1 -3.17%
O=C1c2c(O)cccc2[C@@H]([C@@H]2O[C@H](CO)[C@@H](O)[C@H](O)[C@H]2O)c2cc(CO)cc(O)c21 -17.6%
COc1cc2cc3c4cc(OC)c(OC)cc4cc[n+]3c(C)c2cc1OC 10.4%
Cc1c2oc3c(C)ccc(C(=O)NC4C(=O)NC(C(C)C)C(=O)N5CCCC5C(=O)N(C)CC(=O)N(C)C(C(C)C)C(=O)OC4C)c3nc-2c(C(=O)NC2C(=O)NC(C(C)C)C(=O)N3CCCC3C(=O)N(C)CC(=O)N(C)C(C(C)C)C(=O)OC2C)c(N)c1=O (stereo not drawn) (I: TVP[Sar][NMeV] / II: TVP[Sar][NMeV]; ester I:1-I:C, II:1-II:C; linker I:N-II:N via Actinocin(9to1); configuration not given here) -0.481%
CC(COc1ccc(/C=C/c2ccccc2)cc1)[N+](C)(C)C (stereo not drawn) -58.8%
O=c1cnc2cncnc2n1Cc1ccccc1Cl 0.875%
CCCCCCCCN1[C@@H](CC(=O)OCC)c2cc(F)ccc2S1(=O)=O -3.46%
CC(=O)OC1CC2C(C)(C)CCC(=O)[C@@]2(C)C2CC[C@@]3(C)C(c4ccoc4)OC(=O)C4OC43[C@]12C (stereo partly drawn) 7.55%
COCCNc1ncnc2ccc(-c3ccccc3C)cc12 -17.1%
c1ccc(C2CN3CCSC3=N2)cc1 (stereo not drawn) -10.2% and -33.3%
COc1cccc(-c2cc(=O)c3cc(O)ccc3o2)c1 -8.27%
COCC(=O)Nc1cc(C(=O)N2CCCC(C(C)=O)C2)cc2nc(-c3ccccc3)n(C)c12 (stereo not drawn) 3.29%
COC(=O)c1c(OCc2cccnc2)cc(=O)n2c1CCN(C(=O)c1ccc(OC)c(F)c1)CC2 -13.4%
CC(C)CN1CC[C@@]2(CCCN(C(=O)c3cnccn3)C2)C1 -23.6%
CSc1ccc(-c2ccc(C(=O)NCC3CCCO3)c(N3CCC(O)CC3)n2)cc1 (stereo not drawn) -6.45%
COc1cccc(Nc2ncc3nc(-c4ccccc4)c(=O)n(C4CC4)c3n2)c1 -7.24%
O=c1c(O)c(-c2ccc(O)c(O)c2)oc2c(OC3OC(CO)C(O)C(O)C3O)c(O)cc(O)c12 (stereo not drawn) -8.2%
COc1ccc(NC(=O)c2ccc(-c3ccc(-c4noc(C)n4)cc3C)cc2)cc1OCCN(C)C -7.88% and 5.79%
N#Cc1ccc(CN2CC[C@@]3(CCCN(C(=O)c4cccc(F)c4)C3)C2)cc1 -5.78%
NCCCC[C@H](N[C@@H](CCc1ccccc1)C(=O)O)C(=O)N1CCC[C@H]1C(=O)O -0.853%
NC1(C(=O)O)CCCC1 -8.37%
O=C(/C=C/c1ccccn1)NCC1Cc2cccc(-c3ncccn3)c2O1 (stereo not drawn) -18.3%
CO[C@H]1[C@H](NC(=O)c2ccsc2)c2ccccc2C12CCN(Cc1cnn(C)c1C)CC2 1.86%
COCC(=O)Nc1cc(C(=O)N2CCN(c3ccccc3)CC2C)c2c(c1)nc(-c1ccncc1)n2C (stereo not drawn) -7.41%
Cc1ccc(CN2CCOc3ccc(C(C)(O)COc4ccccc4)cc3C2)o1 (stereo not drawn) -9.89%
CN(C)C(=O)c1ccc(-c2ccc3ncnc(NC4CCNCC4)c3c2)cc1 1%
Cc1nc2cnc(Nc3ccccc3)nc2n(Cc2ccc(F)cc2)c1=O 7.06%
COc1cc2c(cc1OC)/C(=C/c1ccc(N(C)C)cc1)C=C2 -1.18%
c1ccc2c(c1)CCC[C@H]2Nc1nc2ccccc2[nH]1 -25.6%
CCCCCCCCCCCC[n+]1ccc2ccccc2c1 8.11%
CC(C)(C)NC[C@H](O)COc1nsnc1N1CCOCC1 0.408% and -10.7% and -20%
C[C@]12CCC(=O)C=C1CC[C@@H]1[C@@H]2[C@@H](O)C[C@@]2(C)[C@H]1CC[C@]2(O)C(=O)COC(=O)CCC(=O)O -31%
Cc1cc(C(=O)NCC2CCC3(CCN(Cc4ccc5ccccc5c4)CC3)O2)n(C)n1 (stereo not drawn) -7.17%
CN(C)c1ccc(C=O)c(O)c1 -12.8%
Oc1ccccc1O -33.7%
N[C@@H](C(=O)O)c1ccc(P(=O)(O)O)cc1 -12%
Cc1cccc(CNC(=O)c2cnn(-c3ncc(C)c(-c4cccs4)n3)c2C2CC2)n1 5.07%
C[C@@H]1CCC2[C@](C)(CO)[C@@H](O)CC[C@]2(C)[C@]12CCC(CO)(CCO)O2 (stereo partly drawn) -7.73%
O=C(NCC1CCC2(CCN(Cc3cccc4cccnc34)CC2)O1)c1ccco1 (stereo not drawn) 3.35%
O=C1CCN(Cc2ccccc2)CCN1CCOc1ccccc1 -18.1%
